Data as given in the supplement of paper PMC12230231.
± gives the standard deviation of the averaged measurements. Restriction of a single-cycle SIVsab GFP reporter by TRIM5α v1-loop variants in CRFK cells. Human variants: read share among cells still uninfected after two challenges over input, higher = gained restriction. Rhesus variants: share among infected cells over input, higher = lost restriction. Reporter dose not given per row. No active / inactive call per row; the paper calls a change when both replicates lie above its controls (mean + 2 SD of stop or wild-type variants, or the top frameshift score). Residues outside the varied loop are taken from Swiss-Prot. The paper reads the human single-substitution scores as noise; they and the rhesus combinations repeat poorly (rank correlation 0.3 to 0.4), indel scores repeat only for the top variants, rhesus substitutions well (0.9).

The sequences below were run on SIVsab (simian immunodeficiency virus of sabaeus monkeys), single-cycle GFP reporter, in CRFK cells (assay: enrichment among uninfected cells over input (fold); higher = stronger restriction). Settings: library: human / rhesus combinations.
Procedure: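 Pools of CRFK cells expressing variants of the TRIM5α v1 loop were challenged with the single-cycle reporter, sorted by GFP and sequenced; mean of two replicates.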

Sequence	enrichment
MASGILVNVKEEVTCPICLELLTQPLSLDCGHSFCQACLTANHKKSMLDKGESSCPVCRISYQPENIRPNRHVANIVEKLREVKLSPEGQKVDHCARHGEKLLLFCQEDGKVICWLCERSQEHRGHHTFLTEEVAREYQVKLQAALEMLRQKQQEAEELEADIREEKASWKTQIQYDKTNVLADFEQLRDILDWEESNELQNLEKEEEDILKSLTNSETEMVQQTQSLRELISDLEHRLQGSVMELLQGVDGVIKRTENVTLKKPETFPKNQRRVFRAPDLKGMLEVFRELTDVRRYWVDVTVAPNNISCAVISEDKRQVSSPKPQIIYGAPGTRFTFQSLTNFNYCTGILGSQSITSGKHYWEVDVSKKTAWILGVCAGFQPDAMCNIEKNENYQPKYGYWVIGLEEGVKCSAFQDSSFHTPSVPFIVPLSVIICPDRVGVFLDYEACTVSFFNITNHGFLIYKFSHCSFSQPVFPYLNPRKCGVPMTLCSPSS [human TRIM5α, 330-340 = GAPGTRFTFQSLT]	0.527 ± 0.3
MASGILVNVKEEVTCPICLELLTQPLSLDCGHSFCQACLTANHKKSMLDKGESSCPVCRISYQPENIRPNRHVANIVEKLREVKLSPEGQKVDHCARHGEKLLLFCQEDGKVICWLCERSQEHRGHHTFLTEEVAREYQVKLQAALEMLRQKQQEAEELEADIREEKASWKTQIQYDKTNVLADFEQLRDILDWEESNELQNLEKEEEDILKSLTNSETEMVQQTQSLRELISDLEHRLQGSVMELLQGVDGVIKRTENVTLKKPETFPKNQRRVFRAPDLKGMLEVFRELTDVRRYWVDVTVAPNNISCAVISEDKRQVSSPKPQIIYQAPGTRYTFQSFTNFNYCTGILGSQSITSGKHYWEVDVSKKTAWILGVCAGFQPDAMCNIEKNENYQPKYGYWVIGLEEGVKCSAFQDSSFHTPSVPFIVPLSVIICPDRVGVFLDYEACTVSFFNITNHGFLIYKFSHCSFSQPVFPYLNPRKCGVPMTLCSPSS [human TRIM5α, 330-340 = QAPGTRYTFQSFT]	0.135 ± 0.031
MASGILVNVKEEVTCPICLELLTQPLSLDCGHSFCQACLTANHKKSMLDKGESSCPVCRISYQPENIRPNRHVANIVEKLREVKLSPEGQKVDHCARHGEKLLLFCQEDGKVICWLCERSQEHRGHHTFLTEEVAREYQVKLQAALEMLRQKQQEAEELEADIREEKASWKTQIQYDKTNVLADFEQLRDILDWEESNELQNLEKEEEDILKSLTNSETEMVQQTQSLRELISDLEHRLQGSVMELLQGVDGVIKRTENVTLKKPETFPKNQRRVFRAPDLKGMLEVFRELTDVRRYWVDVTVAPNNISCAVISEDKRQVSSPKPQIIYGAPGTLYTFPTLTNFNYCTGILGSQSITSGKHYWEVDVSKKTAWILGVCAGFQPDAMCNIEKNENYQPKYGYWVIGLEEGVKCSAFQDSSFHTPSVPFIVPLSVIICPDRVGVFLDYEACTVSFFNITNHGFLIYKFSHCSFSQPVFPYLNPRKCGVPMTLCSPSS [human TRIM5α, 330-340 = GAPGTLYTFPTLT]	0.128 ± 0.019
MASGILVNVKEEVTCPICLELLTQPLSLDCGHSFCQACLTANHKKSMLDKGESSCPVCRISYQPENIRPNRHVANIVEKLREVKLSPEGQKVDHCARHGEKLLLFCQEDGKVICWLCERSQEHRGHHTFLTEEVAREYQVKLQAALEMLRQKQQEAEELEADIREEKASWKTQIQYDKTNVLADFEQLRDILDWEESNELQNLEKEEEDILKSLTNSETEMVQQTQSLRELISDLEHRLQGSVMELLQGVDGVIKRTENVTLKKPETFPKNQRRVFRAPDLKGMLEVFRELTDVRRYWVDVTVAPNNISCAVISEDKRQVSSPKPQIIYGARGTRFQSLVNFNYCTGILGSQSITSGKHYWEVDVSKKTAWILGVCAGFQPDAMCNIEKNENYQPKYGYWVIGLEEGVKCSAFQDSSFHTPSVPFIVPLSVIICPDRVGVFLDYEACTVSFFNITNHGFLIYKFSHCSFSQPVFPYLNPRKCGVPMTLCSPSS [human TRIM5α, 330-340 = GARGTRFQSLV]	0.00124 ± 0.00028
MASGILVNVKEEVTCPICLELLTQPLSLDCGHSFCQACLTANHKKSMLDKGESSCPVCRISYQPENIRPNRHVANIVEKLREVKLSPEGQKVDHCARHGEKLLLFCQEDGKVICWLCERSQEHRGHHTFLTEEVAREYQVKLQAALEMLRQKQQEAEELEADIREEKASWKTQIQYDKTNVLADFEQLRDILDWEESNELQNLEKEEEDILKSLTNSETEMVQQTQSLRELISDLEHRLQGSVMELLQGVDGVIKRTENVTLKKPETFPKNQRRVFRAPDLKGMLEVFRELTDVRRYWVDVTVAPNNISCAVISEDKRQVSSPKPQIIYQARGTRFTFPTFVNFNYCTGILGSQSITSGKHYWEVDVSKKTAWILGVCAGFQPDAMCNIEKNENYQPKYGYWVIGLEEGVKCSAFQDSSFHTPSVPFIVPLSVIICPDRVGVFLDYEACTVSFFNITNHGFLIYKFSHCSFSQPVFPYLNPRKCGVPMTLCSPSS [human TRIM5α, 330-340 = QARGTRFTFPTFV]	0.291 ± 0.063
MASGILVNVKEEVTCPICLELLTQPLSLDCGHSFCQACLTANHKKSMLDKGESSCPVCRISYQPENIRPNRHVANIVEKLREVKLSPEGQKVDHCARHGEKLLLFCQEDGKVICWLCERSQEHRGHHTFLTEEVAREYQVKLQAALEMLRQKQQEAEELEADIREEKASWKTQIQYDKTNVLADFEQLRDILDWEESNELQNLEKEEEDILKSLTNSETEMVQQTQSLRELISDLEHRLQGSVMELLQGVDGVIKRTENVTLKKPETFPKNQRRVFRAPDLKGMLEVFRELTDVRRYWVDVTVAPNNISCAVISEDKRQVSSPKPQIIYGARGTRFTFQSLTNFNYCTGILGSQSITSGKHYWEVDVSKKTAWILGVCAGFQPDAMCNIEKNENYQPKYGYWVIGLEEGVKCSAFQDSSFHTPSVPFIVPLSVIICPDRVGVFLDYEACTVSFFNITNHGFLIYKFSHCSFSQPVFPYLNPRKCGVPMTLCSPSS [human TRIM5α, 330-340 = GARGTRFTFQSLT]	0.208 ± 0.14
MASGILVNVKEEVTCPICLELLTQPLSLDCGHSFCQACLTANHKKSMLDKGESSCPVCRISYQPENIRPNRHVANIVEKLREVKLSPEGQKVDHCARHGEKLLLFCQEDGKVICWLCERSQEHRGHHTFLTEEVAREYQVKLQAALEMLRQKQQEAEELEADIREEKASWKTQIQYDKTNVLADFEQLRDILDWEESNELQNLEKEEEDILKSLTNSETEMVQQTQSLRELISDLEHRLQGSVMELLQGVDGVIKRTENVTLKKPETFPKNQRRVFRAPDLKGMLEVFRELTDVRRYWVDVTVAPNNISCAVISEDKRQVSSPKPQIIYQAPGTRYTFQTLTNFNYCTGILGSQSITSGKHYWEVDVSKKTAWILGVCAGFQPDAMCNIEKNENYQPKYGYWVIGLEEGVKCSAFQDSSFHTPSVPFIVPLSVIICPDRVGVFLDYEACTVSFFNITNHGFLIYKFSHCSFSQPVFPYLNPRKCGVPMTLCSPSS [human TRIM5α, 330-340 = QAPGTRYTFQTLT]	0.0653 ± 0.049

Same assay, conditions: library: insertions and deletions

Sequence	enrichment
MASGILVNVKEEVTCPICLELLTQPLSLDCGHSFCQACLTANHKKSMLDKGESSCPVCRISYQPENIRPNRHVANIVEKLREVKLSPEGQKVDHCARHGEKLLLFCQEDGKVICWLCERSQEHRGHHTFLTEEVAREYQVKLQAALEMLRQKQQEAEELEADIREEKASWKTQIQYDKTNVLADFEQLRDILDWEESNELQNLEKEEEDILKSLTNSETEMVQQTQSLRELISDLEHRLQGSVMELLQGVDGVIKRTENVTLKKPETFPKNQRRVFRAPDLKGMLEVFRELTDVRRYWVDVTVAPNNISCAVISEDKRQVSSPKPQIIYGARGTRYQTFVNYQTFVNFNYCTGILGSQSITSGKHYWEVDVSKKTAWILGVCAGFQPDAMCNIEKNENYQPKYGYWVIGLEEGVKCSAFQDSSFHTPSVPFIVPLSVIICPDRVGVFLDYEACTVSFFNITNHGFLIYKFSHCSFSQPVFPYLNPRKCGVPMTLCSPSS [human TRIM5α, 6-codon duplication at 336]	0.117 ± 0.031
MASGILVNVKEEVTCPICLELLTQPLSLDCGHSFCQACLTANHKKSMLDKGESSCPVCRISYQPENIRPNRHVANIVEKLREVKLSPEGQKVDHCARHGEKLLLFCQEDGKVICWLCERSQEHRGHHTFLTEEVAREYQVKLQAALEMLRQKQQEAEELEADIREEKASWKTQIQYDKTNVLADFEQLRDILDWEESNELQNLEKEEEDILKSLTNSETEMVQQTQSLRELISDLEHRLQGSVMELLQGVDGVIKRTENVTLKKPETFPKNQRRVFRAPDLKGMLEVFRELTDVRRYWVDVTVAPNNISCAVISEDKRQVSSPKPQRGTRYQTFVNFNYCTGILGSQSITSGKHYWEVDVSKKTAWILGVCAGFQPDAMCNIEKNENYQPKYGYWVIGLEEGVKCSAFQDSSFHTPSVPFIVPLSVIICPDRVGVFLDYEACTVSFFNITNHGFLIYKFSHCSFSQPVFPYLNPRKCGVPMTLCSPSS [human TRIM5α, 5-codon deletion at 327]	0.982 ± 0.28
MASGILVNVKEEVTCPICLELLTQPLSLDCGHSFCQACLTANHKKSMLDKGESSCPVCRISYQPENIRPNRHVANIVEKLREVKLSPEGQKVDHCARHGEKLLLFCQEDGKVICWLCERSQEHRGHHTFLTEEVAREYQVKLQAALEMLRQKQQEAEELEADIREEKASWKTQIQYDKTNVLADFEQLRDILDWEESNELQNLEKEEEDILKSLTNSETEMVQQTQSLRELISDLEHRLQGSVMELLQGVDGVIKRTENVTLKKPETFPKNQRRVFRAPDLKGMLEVFRELTDVRRYWVDVTVAPNNISCAVISEDKRQVSSPKPQIIYFVNFNYCTGILGSQSITSGKHYWEVDVSKKTAWILGVCAGFQPDAMCNIEKNENYQPKYGYWVIGLEEGVKCSAFQDSSFHTPSVPFIVPLSVIICPDRVGVFLDYEACTVSFFNITNHGFLIYKFSHCSFSQPVFPYLNPRKCGVPMTLCSPSS [human TRIM5α, 9-codon deletion at 330]	0.919 ± 0.25
MASGILVNVKEEVTCPICLELLTQPLSLDCGHSFCQACLTANHKKSMLDKGESSCPVCRISYQPENIRPNRHVANIVEKLREVKLSPEGQKVDHCARHGEKLLLFCQEDGKVICWLCERSQEHRGHHTFLTEEVAREYQVKLQAALEMLRQKQQEAEELEADIREEKASWKTQIQYDKTNVLADFEQLRDILDWEESNELQNLEKEEEDILKSLTNSETEMVQQTQSLRELISDLEHRLQGSVMELLQGVDGVIKRTENVTLKKPETFPKNQRRVFRAPDLKGMLEVFRELTDVRRYWVDVTVAPNNISCAVISEDKRQVSSPKPQIIYGARGTRYQTFVNFNYCTNYCTGILGSQSITSGKHYWEVDVSKKTAWILGVCAGFQPDAMCNIEKNENYQPKYGYWVIGLEEGVKCSAFQDSSFHTPSVPFIVPLSVIICPDRVGVFLDYEACTVSFFNITNHGFLIYKFSHCSFSQPVFPYLNPRKCGVPMTLCSPSS [human TRIM5α, 4-codon duplication at 343]	0.441 ± 0.47
MASGILVNVKEEVTCPICLELLTQPLSLDCGHSFCQACLTANHKKSMLDKGESSCPVCRISYQPENIRPNRHVANIVEKLREVKLSPEGQKVDHCARHGEKLLLFCQEDGKVICWLCERSQEHRGHHTFLTEEVAREYQVKLQAALEMLRQKQQEAEELEADIREEKASWKTQIQYDKTNVLADFEQLRDILDWEESNELQNLEKEEEDILKSLTNSETEMVQQTQSLRELISDLEHRLQGSVMELLQGVDGVIKRTENVTLKKPETFPKNQRRVFRAPDLKGMLEVFRELTDVRRYWVDVTVAPNNISCAVISEDKRQVSSPKPQIIYGARGTRYQTFGILGSQSITSGKHYWEVDVSKKTAWILGVCAGFQPDAMCNIEKNENYQPKYGYWVIGLEEGVKCSAFQDSSFHTPSVPFIVPLSVIICPDRVGVFLDYEACTVSFFNITNHGFLIYKFSHCSFSQPVFPYLNPRKCGVPMTLCSPSS [human TRIM5α, 7-codon deletion at 340]	1 ± 0.57
